# Data from the RNAGym collection of RNA variant scans (doi:10.7554/elife.90254).
# Read counts are not given, so values of variants with three or more changes are uncertain.
# B1: LINE1-mini (parent)
# chain: GGCAGAGCUCAACACAGCGUGGCAAAGUGGCUGUGGCUAGACUGCC
# Variants of: B1
# Test: self-cleavage, relative activity (ratio to wild type); higher = more cleavage; in vitro, sequencing; the parent is a self-cleaving ribozyme
row,Variant,self-cleavage
1,C10A G17A G30C,0.08
2,C10A G17A G35A G44U C45G,0.01
3,C10A G17A U28G,0.04
4,C10A G17C A25U G33C,0.03
5,C10A G17C C23A,0.04
6,C10A G17C C37A,0.03
7,C10A G17C C45U,0.03
8,C10A G17C G22A,0.09
9,C10A G17C G40U,0.04
10,C10A G17U C23G G35U G40A,0.01
11,C10A G17U G21C,0.01
12,C10A G17U G30C U34A C37U,0
13,C10A G17U G40C,0.04
14,C10A G19A G21U C31A G40U C46A,0
15,C10A G19A U20A A26U U38G C42G U43A,0
16,C10A G19C A25G,0.03
17,C10A G19C G30U U34G,0.12
18,C10A G19C U20C G27C C31A G36C G40U,0
19,C10A G19C U34C,0.02
20,C10A G19U A24U,0.03
21,C10A G19U A26C C37G,0

row,Variant,self-cleavage
1,C10A G19U A41G,0.01
2,C10A G19U G30U G36C C37A,0.01
3,C10A G21A C23U G29C G30C G40U,0.01
4,C10A G21A C23U U28G,0.01
5,C10A G21A G36A,0.02
6,C10A G21A U43A,0.02
7,C10A G21C A26U G30U,0.02
8,C10A G21C G33U C37U,0
9,C10A G21U C42G,0.01
10,C10A G22A A26U U38A,0.31
11,C10A G22A G35U,0.02
12,C10A G22A G36U C37A U38G,0
13,C10A G22C G27A G30A,0.02
14,C10A G22C G27U G30A G33A,0
15,C10A G22U A24C A25G A26U U38G U43A,0.01
16,C10A G22U C23A G35A,0.01
17,C10A G22U C31A A41G,0.03
18,C10A G22U C31A C46G,0.05
19,C10A G27A A41U,0.01
20,C10A G27C C46A,0.01
21,C10A G27C G29C C42G C45A,0

row,Variant,self-cleavage
1,C10A G27C G36U C46A,0.01
2,C10A G27U A39U,0.34
3,C10A G27U G29C U32A C37G A39C,0.01
4,C10A G27U G33U,0.01
5,C10A G27U U32C,0.01
6,C10A G29A U32A,0.02
7,C10A G29C U32G G44U,0.02
8,C10A G29U A41G C46A,0.01
9,C10A G29U C31U A41C,0.01
10,C10A G29U C45U,0.02
11,C10A G29U G36A,0.01
12,C10A G30A A41C U43G,0.33
13,C10A G30C A39U C45A,0.07
14,C10A G30C U34C,0.02
15,C10A G30U C31A C42U,0.11
16,C10A G30U G33A U34G,0.01
17,C10A G33A G35U,0
18,C10A G33C C42U,0.02
19,C10A G33U U38C U43A,0
20,C10A G35C G44U,0.03
21,C10A G35U C42U,0.01

row,Variant,self-cleavage
1,C10A G35U G36A,0.02
2,C10A G36A U38G,0.02
3,C10A G36C A41G,0.02
4,C10A G36C C37U,0
5,C10A G36U G40A,0.01
6,C10A G36U G40C,0.01
7,C10A G40U U43A,0.02
8,C10A U20A A25G U34A,0.04
9,C10A U20A A26U,0.05
10,C10A U20A C37A G40C,0.01
11,C10A U20C A39C C42G,0.02
12,C10A U20G C23A G30A,0.06
13,C10A U20G G21C C23U A26U G40U,0.01
14,C10A U20G U34G,0.02
15,C10A U28A A41C C42U C45U,0.01
16,C10A U28C G30A C42G,0
17,C10A U28C U43A,0
18,C10A U28G C42U,0
19,C10A U28G G40C,0.02
20,C10A U32G G44U C46A,0.06
